According to PubChem BioAssay AID894 (National Center for Advancing Translational Sciences (NCATS), 2007):
Hit rate of the full screen: of about 150,000 compounds, about 6,500 (4.3%) were called active. The inconclusive results got no clear call from the source; some entries with a clear call stand among them for comparison. The call rests on the fitted dose curve; in most records, active means well fitted inhibition curve with a large enough effect (not every such curve was filed as active); inconclusive means small, poorly fitted or top-dose-only effect, or another doubt; inactive means no such curve, though single readings can be large or run the other way. Potencies of inconclusive entries are left out as doubtful fits. Where a structure was tested more than once in an assay, its records may differ in their call.

target: 15-hydroxyprostaglandin dehydrogenase [NAD(+)] (Homo sapiens) (UniProt P15428); assay: qHTS Assay for Inhibitors of HPGD (15-Hydroxyprostaglandin Dehydrogenase); settings: purified HPGD, NADH fluorescence kinetic, PGE2 substrate; activity change, negative = inhibition: hits give low values
How it was run: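 NADH formation kinetics: reaction with 30 uM PGE2 and 1 mM NAD+ (final), 20 nM enzyme, Tris-HCl pH 8 with Tween 20, after 15 min compound preincubation at room temperature. Fluorescence change, last versus first of five reads.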
On the % scale 0 is the no-effect control and ±100 the full control effect; potency means the concentration at half of the fitted maximal effect; tags describe the fitted curve by direction and shape.

Sequence of UniProt P15428 (P15428 whole entry, looked up): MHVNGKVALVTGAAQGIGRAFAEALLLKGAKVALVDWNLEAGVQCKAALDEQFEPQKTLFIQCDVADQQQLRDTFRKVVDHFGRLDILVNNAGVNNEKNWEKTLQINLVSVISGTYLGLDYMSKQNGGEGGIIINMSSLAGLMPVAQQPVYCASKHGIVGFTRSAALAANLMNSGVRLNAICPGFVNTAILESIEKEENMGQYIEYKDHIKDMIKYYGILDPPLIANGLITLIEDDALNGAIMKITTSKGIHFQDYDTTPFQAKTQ

| SMILES | Potency | activity change, negative = inhibition |
| --- | --- | --- |
| COc1ccccc1-c1cc(C(=O)N2CCCCC2)no1 | active: 3.55 µM |  |
| CC1=CC2=NC(=O)CC(C)(C(=O)N(CC(=O)NC(C)(C)C)C3CCCC3)N2C=C1 (stereo not given) | inconclusive [inhibitor, partial curve] |  |
| Cc1c(CC=C(Cl)Cl)c(=O)[nH]c2c(C)cccc12 |  | inactive: -14.8% |
| N#C/C(=C/c1cn(-c2ccccc2)nc1-c1cccc(S(=O)(=O)N2CCCC2)c1)C(=O)NCc1ccco1 | inconclusive [inhibitor, partial curve] |  |
| O[C@H](C[C@@H]1CCCCN1)c1ccc2c(c1)oc1ccccc12 |  | inactive: -0.675% |
| C/C(Cn1nc([N+](=O)[O-])cc1C)=N\NC(=O)c1cccc(Br)c1 |  | inactive: -9.34% |
| N#CC1=C(N)OC(c2ccccc2)=C(C#N)C1c1ccc2c(c1)OCO2 (stereo not given) | active: 14.1 µM |  |
| COC(=O)c1ccccc1NC(=O)N[C@@H](C)C(=O)OC | inconclusive [inhibitor, partial curve] |  |
| COc1ccc(NC(=O)CN2CCN(CC(=O)Nc3ccc4c(c3)OCO4)CC2)cc1 |  | inactive: -4.69% |
| Cc1onc(-c2c(F)cccc2Cl)c1C(=O)Nc1sc2c(c1C#N)CCC(C(C)(C)C)C2 (stereo not given) | inconclusive [inhibitor, partial curve] |  |
| C=CCn1c(-c2ccc3[nH]c(C)c(C)c3c2)n[nH]c1=S | inconclusive [inhibitor, single point] |  |
| Cc1ccc(SCCC(=O)NC(C(C)C)C(C)C)cc1 | active: 7.94 µM |  |
| Cc1ccc(S(=O)(=O)N(CC(O)CN2C(=O)NC(C)(C)C2=O)c2ccccc2)cc1 (stereo not given) |  | inactive: -9.8% |
| O=C(Nc1c2ccccc2nc2ccccc12)C(Cl)(Cl)Cl | inconclusive [inhibitor, partial curve] |  |
| COc1ccc(-c2[nH]c3ccccc3c2SCCNC(=O)c2ccccc2)cc1 | inconclusive [inhibitor, partial curve] |  |
| CC(=O)NC(NC(C)=O)c1ccc(Br)cc1 |  | inactive: -7.5% |
| COC(=O)c1sccc1NC(=O)CSc1nnnn1-c1ccccc1C | inconclusive [inhibitor, partial curve] |  |
| COc1ccccc1Oc1c(C)oc2c(CN3CCN(CCO)CC3)c(O)ccc2c1=O | inconclusive [inhibitor, partial curve] |  |
| Cn1c(=O)c2c(nc(CN3CCN(C(c4ccccc4)c4ccccc4)CC3)n2CC(N)=O)n(C)c1=O |  | inactive: -10% |
| O=C(O)c1ccncc1.O=C(O)c1ccncc1.[Cl][Pt]([Cl])([Cl])[Cl] | active: 3.98 µM |  |
